Source: PubChem BioAssay AID485294 (National Center for Advancing Translational Sciences (NCATS), 2010)
In all, about 370,000 compounds went through this assay and about 150 (0.041%) were called active. This list was built around the results that the source calls inconclusive (neither active nor inactive); the mix of calls is not that of the screen. Calls follow the shape of the dose curve; as a rule, active = well fitted inhibition curve with a large enough effect; inconclusive = small, poorly fitted or top-dose-only effect; inactive = flat fitted curve, though single readings scatter. No potency is given beside an inconclusive call; the fits are too rough.

biological target: Beta-lactamase (Escherichia coli (strain K12)) (UniProt P00811); test: qHTS Inhibitors of AmpC Beta-Lactamase (assay with detergent); details: AmpC hydrolysis of nitrocefin, absorbance 480 nm, 0.01% Triton; series mostly up to 114 µM; also: nearly all actives have a fitted effect of over 25% in size
How it was run: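 AmpC (5.3 nM in the dispensed reagent) in 20 mM phosphate pH 7.0 with 0.01% (detergent screen) or 0.0001% Triton X-100 was preincubated with compounds for 15 min at room temperature. Nitrocefin was then added from an 800 uM solution, and hydrolysis was followed at 480 nm.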
Potency is read from the fitted curve at half-maximal effect; tags tell the direction and shape of the fitted curve.

Chain of UniProt P00811 (P00811 whole entry, looked up): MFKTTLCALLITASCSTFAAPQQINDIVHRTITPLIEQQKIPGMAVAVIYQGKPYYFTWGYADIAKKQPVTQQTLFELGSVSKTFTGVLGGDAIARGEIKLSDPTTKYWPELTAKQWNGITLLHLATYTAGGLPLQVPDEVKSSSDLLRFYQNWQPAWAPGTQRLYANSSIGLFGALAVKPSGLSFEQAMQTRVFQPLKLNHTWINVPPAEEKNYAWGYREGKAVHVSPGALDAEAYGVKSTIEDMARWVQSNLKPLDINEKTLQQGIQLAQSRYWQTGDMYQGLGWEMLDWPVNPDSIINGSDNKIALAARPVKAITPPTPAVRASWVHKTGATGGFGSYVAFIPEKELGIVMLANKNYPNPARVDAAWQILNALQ

Structure (SMILES)	Potency
CCN1C(=NCCOC)N[C@@H](c2ccccc2)[C@H](C(=O)OC)[C@H]1C	inconclusive [inhibitor, partial curve, poor fit]
COc1ccc(-c2cnc[nH]2)cc1	inactive
CCCCNc1c(-c2cccc(-c3cc(C(C)=O)cs3)c2)nc2ccc(C)cn12	inactive
O=C(CNC(=O)c1ccccc1)OC(C(=O)Nc1cc(C(F)(F)F)ccc1Cl)c1ccccc1 (configuration not stated)	inconclusive [inhibitor, single point]
O=C(COC(=O)C1=COCCO1)Nc1ccc2c(c1)OCO2	inconclusive [inhibitor, full curve, poor fit]
O=C(c1ccc(-c2cccc(C(F)(F)F)c2)o1)N1CCCC(C(F)(F)F)C1 (configuration not stated)	inconclusive [inhibitor, partial curve, poor fit]
CCCCCn1c(=O)[nH]c2cc(C(=O)N3CCN(c4cccc(C)c4)C(C)C3)ccc2c1=O (configuration not stated)	inactive
CCOC(=O)c1sc(NC(=O)c2cccc(S(=O)(=O)N(CC)CC)c2)cc1C	inconclusive [inhibitor, single point]
CCOC(=O)Cc1csc(SC(C)C(=O)NC2CCCCC2C)n1 (configuration not stated)	inconclusive [inhibitor, full curve]
CCCNC(=O)CS(=O)(=O)c1ccccc1	inconclusive [inhibitor, full curve, poor fit]
COc1cc(OC)cc(C(=O)Nc2nc3ccccc3[nH]2)c1	inactive
Cc1ccc(Cl)c(OCC(=O)Nc2cccnc2)c1	inactive
COc1ccc(Cn2c(CCC(=O)NCc3ccco3)nc3cccnc32)cc1	inconclusive [inhibitor, partial curve]
CCc1nc(N2CCN(C(=O)c3ccco3)CC2)c2oc3ccccc3c2n1	inconclusive [inhibitor, full curve, poor fit]
CN(C)N1C(N)=C(C#N)C(c2cccc([N+](=O)[O-])c2)C2=C1CC(C)(C)CC2=O (configuration not stated)	inactive
Cn1c(=O)c2c(ncn2CC(=O)N/N=C/C=C/c2ccco2)n(C)c1=O	inconclusive [inhibitor, partial curve, poor fit]
O=S(=O)(c1ccc(F)cc1)N1CCN(S(=O)(=O)c2cc(F)ccc2F)CC1	inconclusive [inhibitor, full curve, poor fit]
Cc1cccc(NC(=S)NCCc2ccccc2)c1C	inconclusive [inhibitor, partial curve]
COc1cc(NC(=O)c2ccccc2)c(OC)cc1NC(=O)CN1CCCCC1	inconclusive [inhibitor, partial curve]
CCOc1cccc(CNc2ccc(O)cc2)c1OCc1ccc(Cl)cc1Cl	inactive
Cc1ccc(C(=O)NCC(=O)OC(C)C(=O)NC2CCCCC2C)cc1C (configuration not stated)	inconclusive [inhibitor, full curve, poor fit]
COc1cc2[nH]c(C(=O)N3CCc4ccccc43)cc2c(OC)c1OC	inactive
NC(=O)N/N=C/c1ccccc1OC(=O)c1cc2ccccc2oc1=O	inactive
CCOC(=O)CSCC(=O)Nc1ccc(S(=O)(=O)N2CCCCC2)cc1	inconclusive [inhibitor, full curve, poor fit]

Structure (SMILES)	Potency
Cc1ccc(OCCNC(=O)c2ccco2)cc1C	inactive
COc1cccc(CN2CCN(Cc3cccc(F)c3)CC2)c1	inconclusive [inhibitor, full curve, poor fit]
COc1ccc(NC(=O)Cn2nnc(-c3ccccc3NS(=O)(=O)c3ccccc3)n2)cc1	inconclusive [inhibitor, partial curve]
CC(C)C1Oc2ccccc2N(CC(=O)N(Cc2ccccn2)CC2CCCO2)C1=O (configuration not stated)	inconclusive [inhibitor, full curve, poor fit]
CCc1nc(SCC(=O)Nc2ccccc2OC)n[nH]1	inconclusive [inhibitor, partial curve]
CS(=O)(=O)CC(=O)Nc1ccc2nc3n(c(=O)c2c1)CCCCC3	inactive
CCC(Sc1nc(=O)cc(N)n1-c1ccccc1)C(=O)Nc1cc(C)on1 (configuration not stated)	inconclusive [inhibitor, partial curve]
O=C(c1cccs1)N1CCN(c2ccc(F)cc2)CC1	inactive
Cc1nn(-c2ccccn2)c2c1C(=O)C(Br)CC2 (configuration not stated)	inactive
CCOC(=O)CNC(=S)N1CCn2c(nc3ccccc32)C1	inconclusive [inhibitor, single point]
COC(=O)Nc1ccc(S(=O)(=O)N2CCCCC2C(=O)NCc2ccco2)cc1 (configuration not stated)	inconclusive [inhibitor, single point]
COc1ccc(N2CCN(CC(=O)c3ccc(O)c(C)c3O)CC2)cc1	inactive
COc1ccc(-c2nc(CN(CC3CCC(=O)N3)C(C)C)c(C)o2)c(C)c1C (configuration not stated)	inactive
CC(=O)Nc1ccc(Nc2cc(C)nc3c(-c4ccc(Cl)cc4)cnn23)cc1	inactive
O=C(/C=C/c1cccnc1)c1ccc([N+](=O)[O-])cc1	inactive
Cc1c(C(N)=O)c(N)c(C(=O)c2ccccc2)n1-c1ccccc1	inconclusive [inhibitor, partial curve, poor fit]
Nc1n[nH]c(CCCO)n1	inconclusive [inhibitor, full curve, poor fit]
COc1ccc(OCC(=O)Nc2cc(OC)cc(OC)c2)cc1	inconclusive [inhibitor, partial curve, poor fit]
N#CC1=C(N)N=C(SCc2cccc3ccccc23)C(C(N)=O)C12CCCCC2 (configuration not stated)	inconclusive [inhibitor, full curve, poor fit]
CCOc1ccc(N(C(C)C(=O)NN=C2CCCCCCC2)S(C)(=O)=O)cc1 (configuration not stated)	inactive
COc1cc(Br)cc(/C=C/c2ccc3cccc(O)c3n2)c1OC	inactive
Cc1cccc(-c2nc(CSc3nc4c(c(=O)[nH]3)CCC4)c(C)o2)c1	inconclusive [inhibitor, partial curve, poor fit]
CC1=C(C)/C(=N/OC(=O)c2cccc([N+](=O)[O-])c2)C=CC1=O	inconclusive [inhibitor, single point]
CCOC(=O)c1ccc(NC(=S)NNC(C)(C)C)cc1	inactive

Structure (SMILES)	Potency
CCOC(=O)N1C(=O)[C@@](CC)(c2ccccc2)N1C(=O)OCC	inconclusive [inhibitor, partial curve, poor fit]
Cc1ccc(CSc2nnc(-c3cccnc3)o2)cc1	inconclusive [inhibitor, single point]
CCOc1ccc(NC(=O)c2ccc(S(=O)(=O)N(C)C)cc2)cc1	inconclusive [inhibitor, partial curve, poor fit]
CCS(=O)CCSc1nc2ccccc2s1 (configuration not stated)	inactive
O=C(O)c1ccc2noc(-c3ccccc3)c2c1	inconclusive [inhibitor, single point]
Cc1cc(C)c2[nH]c(C)c(CN3CCCCCC3)c(=O)c2c1	inactive
CS(=O)(=O)Nn1cnc2ccccc2c1=O	inconclusive [inhibitor, full curve]
COc1ccc(N2CCN(C(=O)c3ccc(NS(=O)(=O)c4cccc(F)c4)cc3)CC2)cc1	inconclusive [inhibitor, single point]
CCC(=O)Nc1cccc(NC(=S)NC(=O)c2cccc(C)c2)c1	inactive
CCCC(=O)N(c1ccc2oc(C)c(C(C)=O)c2c1)S(=O)(=O)c1ccc(C(=O)O)cc1	inconclusive [inhibitor, partial curve]
Brc1ccc(OCc2nc3ccccc3[nH]2)cc1	inactive
O=C(NC(=S)NCc1ccc(F)cc1)c1ccccc1	inconclusive [inhibitor, partial curve, poor fit]
CCCn1c(SCCN2CCOCC2)nc2c1c(=O)n(C)c(=O)n2C	inconclusive [inhibitor, full curve, poor fit]
O=C(NC1CCN(c2ncccn2)CC1)c1ccccc1Cl	inconclusive [inhibitor, partial curve]
Cc1nc2ccccc2c(=O)n1-c1cc(F)ccc1F	inconclusive [inhibitor, full curve, poor fit]
C=C(C)C1CC=C(C)/C(=N/NC(=O)C2CC2c2ccccc2)C1 (configuration not stated)	inconclusive [inhibitor, full curve, poor fit]
COc1ccc2c(CC(=O)OCC(=O)N3CCc4ccccc43)coc2c1	inconclusive [inhibitor, full curve, poor fit]
O=C(CC12CC3CC(CC(C3)C1)C2)Nc1ccc(C(=O)O)cc1	inconclusive [inhibitor, single point]
CCN(C(=O)COC(=O)c1[nH]c(C)c(C(C)=O)c1C)c1c(N)n(Cc2ccccc2)c(=O)[nH]c1=O	inactive
COc1cccc(CNC(=O)c2cc3c(s2)-c2c(C)cccc2OC3)c1	inactive
CCn1c(CNC(=O)C23CC4CC(CC(C4)C2)C3)nnc1SCC(=O)Nc1ccccc1	inconclusive [inhibitor, partial curve, poor fit]
CC(=O)Nc1ccc(/C(C)=N/NS(=O)(=O)c2ccccc2)cc1	inactive
c1ccc(-c2csc3ncnc(NCC4COc5ccccc5O4)c23)cc1 (configuration not stated)	inactive
CCCn1c(CCNc2nc(-c3ccc(Cl)c([N+](=O)[O-])c3)cs2)nc2cc(Cl)c(Cl)cc21	inconclusive [inhibitor, full curve, poor fit]
